Reference: PubChem BioAssay (Tox21)
Inconclusive means that the source gave no clear call. Such entries were picked first, then a sample of the others. For part of these data: Potencies of inconclusive entries are doubtful fits and often do not repeat. Active and inactive are the calls of the source. Unless noted, calls come from the whole dose curve; as a rule, active = well fitted curve in the direction sought with a large enough effect in the repeat runs; inconclusive = weak or mixed curves; inactive = no such curve, though single readings can be large; an effect the other way counts as inactive or inconclusive.

Legend:
[1] = target: Peroxisome proliferator-activated receptor delta (Homo sapiens) (UniProt Q03181); assay: qHTS assay to identify small molecule agonists of the peroxisome proliferator-activated receptor delta (PPARd) signaling pathway (AID 743212; calls by dose curve; for activation: % is set by controls: 0 for no effect and ±100 for the full control effect); conditions: HEK293H PPARd-UAS-bla, beta-lactamase FRET ratio, 17 h; activation: at 62.6 µM (top of the series) unless noted
Summary of the method: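 GeneBLAzer UAS-bla HEK293H cells carrying a PPARδ construct were exposed to compounds at 37 °C. Beta-lactamase activity was read by FRET fluorescence after 2 h at room temperature with LiveBLAzer B/G substrate.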

[2] = qHTS assay to identify small molecule antagonists of the peroxisome proliferator-activated receptor delta (PPARd) signaling pathway - cell viability counter screen (AID 743213); conditions: PPARd-bla HEK293H viability, CellTiter-Glo luminescence, 17 h; viability change, negative = cytotoxic: at 62 µM (top of the series) unless noted; note: nearly all actives have a fitted effect of over 50% in size
Summary of the method: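 In this counter screen, HEK293H cells carrying a UAS-beta-lactamase reporter are co-treated with test compounds and 300 nM L165041 (final) for 17 h at 37 C; cell viability is quantified by CellTiter-Glo luminescence.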

[3] = qHTS assay to identify small molecule agonists of the farnesoid-X-receptor (FXR) signaling pathway - cell viability counter screen (AID 743218); conditions: FXR-bla HEK293T viability, CellTiter-Glo luminescence, 16 h; viability change, negative = cytotoxic: at 62.6 µM (top of the series) unless noted; note: nearly all actives have a fitted effect of over 45% in size
Summary of the method: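 After 16 h at 37 C with test compounds, FXR-bla HEK 293T cells were given LiveBLAzer B/G substrate for 2 h at RT and then CellTiter-Glo; luminescence was taken after 30 min.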

[4] = target: Bile acid receptor (Homo sapiens) (UniProt Q96RI1); assay: qHTS assay to identify small molecule agonists of the farnesoid-X-receptor (FXR) signaling pathway (AID 743220; active = well fitted activation curve with a large enough effect in the signal ratio in the repeat runs, not every such curve was filed as active; inconclusive = weak or mixed curves, or effect the other way; the % refers to the signal ratio); conditions: HEK293T FXR-UAS-bla, beta-lactamase FRET ratio, 16 h; activation: at 62.6 µM (top of the series) unless noted
Summary of the method: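 Beta-lactamase reporter under UAS control in GeneBLAzer FXR HEK 293T cells (5000/well) measured with LiveBLAzer FRET substrate after 2 h at room temperature. Compound exposure lasted 16 h at 37C.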

[5] = target: Vitamin D3 receptor (Homo sapiens) (UniProt P11473); assay: qHTS assay to identify small molecule agonists of the vitamin D receptor (VDR) signaling pathway (AID 743222; calls by dose curve); conditions: HEK293T VDR-UAS-bla, beta-lactamase FRET ratio, 16 h; activation: at 63.5 µM (top of the series) unless noted
Summary of the method: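 VDR-bla cells were seeded, left 4 h, treated with compounds in DMSO for 16 h, incubated 2 h at RT with B/G FRET substrate, and read for fluorescence.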

[6] = target: Vitamin D3 receptor (Homo sapiens) (UniProt P11473); assay: qHTS assay to identify small molecule antagonists of the vitamin D receptor (VDR) signaling pathway (AID 743223; active = well fitted inhibition curve with a large enough effect in the signal ratio in the repeat runs, not every such curve was filed as active; inconclusive = weak or mixed curves, or effect the other way; inactive = no such curve, though single readings can be large or run the other way; the % refers to the signal ratio; for activity change, negative = inhibition: % is set by controls: 0 for no effect and ±100 for the full control effect); conditions: VDR-UAS-bla HEK293T, beta-lactamase FRET ratio, 16 h; activity change, negative = inhibition: at 61 µM (top of the series) unless noted
Summary of the method: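 VDR-bla cells were plated, incubated 4 h at 37C, then given compound and 1alpha,25-dihydroxyvitamin D3 (3 nM final). After 16 h at 37C, LiveBLAzer B/G FRET substrate was added for 2 h at room temperature and fluorescence read.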

[7] = qHTS assay to identify small molecule agonists of the vitamin D receptor (VDR) signaling pathway - cell viability counter screen (AID 743224); conditions: VDR-bla HEK293T viability, CellTiter-Glo luminescence, 16 h; activity change, negative = cytotoxicity: at 62.6 µM (top of the series); note: nearly all actives have a fitted effect of over 50% in size
Summary of the method: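 Here cell health was gauged by luminescent ATP detection (CellTiter-Glo, 30 min RT) in VDR-bla cells that had been incubated with test compounds for 16 h at 37C and 5% CO2.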

[8] = qHTS assay to identify small molecule antagonists of the vitamin D receptor (VDR) signaling pathway - cell viability counter screen (AID 743225); conditions: VDR-bla HEK293T viability, CellTiter-Glo luminescence, 16 h; viability change, negative = cytotoxic: at 61 µM (top of the series) unless noted; note: nearly all actives have a fitted effect of over 50% in size
Summary of the method: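 VDR-bla HEK 293T cells, 4 h pre-incubation at 37C, then compound plus 1-alpha,25-dihydroxyvitamin D3 (3 nM final) for 16 h. After the beta-lactamase FRET read, CellTiter-Glo was added to the same wells; luminescence after 30 min at room temperature.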

[9] = qHTS assay to identify small molecule agonists of the endoplasmic reticulum stress response signaling pathway (AID 1159516; active = well fitted activation curve with a large enough effect in the signal ratio in the repeat runs, not every such curve was filed as active; inconclusive = weak or mixed curves, or effect the other way; the % refers to the signal ratio; for activation: % is set by controls: 0 for no effect and ±100 for the full control effect); conditions: ESRE-bla HeLa, ER stress beta-lactamase reporter, 5 h; activation: at 61 µM (top of the series) unless noted
Summary of the method: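 Reporter HeLa cells (ESRE-beta-lactamase) underwent 5 hr compound incubation at 37 C and 5% CO2 in quantitative HTS format. Detection followed 2 hr of FRET substrate loading at room temperature.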

[10] = qHTS assay to identify small molecule antagonists of the retinoid-related orphan receptor gamma (ROR-gamma) signaling pathway - cell viability counter screen (AID 1159520); conditions: Tet-on RORgamma CHO cells viability, ATP luminescence, 16 h; series mostly up to 92.4 µM; note: nearly all actives have a fitted effect of over 50% in size
Summary of the method: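 Tet-on ROR gamma CHO cells were given compounds for 2 hr, then doxycycline hyclate at 1 uM final, and incubated 16 hr at 37 C. Viability was measured as ATP content by CellTiter-Glo luminescence.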

[11] = target: Nuclear receptor ROR-gamma (Homo sapiens) (UniProt P51449); assay: qHTS assay to identify small molecule antagonists of the retinoid-related orphan receptor gamma (ROR-gamma) signaling pathway (AID 1159521; note: nearly all actives have a fitted effect of over 50% in size); conditions: Tet-on RORgamma CHO cells, RORE-luciferase, 16 h; series mostly up to 92.4 µM
Summary of the method: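 Tet-on RORγ CHO cells carrying a ROR response element–luciferase reporter were pretreated with compounds for 2 h, then induced with 1 uM (final) doxycycline hyclate for 16 h at 37 C. Antagonism was read as decreased ONE-Glo luminescence.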

[12] = qHTS assay to identify small molecule agonists of the AP-1 signaling pathway - cell viability counter screen (AID 1159525; calls by dose curve; note: nearly all actives have a fitted effect of over 55% in size); conditions: ME-180 AP-1-bla cells viability, ATP luminescence, 5 h; series mostly up to 76.8 µM
Summary of the method: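 AP-1-bla ME-180 cells in Opti-MEM with 0.5% dialyzed FBS, compound exposure 5 h at 37 C in 15-point titration. Viability read in the same wells as ATP content by CellTiter-Glo luminescence, normalised to tetra-n-octylammonium bromide and DMSO controls.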

[13] = qHTS assay to identify small molecule agonists of the AP-1 signaling pathway (AID 1159526; calls by dose curve); conditions: ME-180 (cervical carcinoma) AP-1-bla reporter, beta-lactamase FRET ratio, 5 h; activation: at 76.8 µM (top of the series) unless noted
[14] = target: Retinoic acid receptor RXR-alpha (Homo sapiens) (UniProt P19793); assay: qHTS assay to identify small molecule agonists of the RXR signaling pathway (AID 1159527; calls by dose curve; note: nearly all actives have a fitted effect of over 35% in size); conditions: HEK293T RXRa-UAS-bla, beta-lactamase ratio, 16 h; activation: at 76.8 µM (top of the series) unless noted
Summary of the method: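 GeneBLAzer RXR-alpha-UAS-bla HEK 293T cells in medium with 2% charcoal-stripped FBS, pre-incubated 5 hr at 37 C, then exposed to compounds 16 hr. Beta-lactamase reporter read by FRET substrate, 2 hr room temperature, 460/530 nm emission.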

[15] = target: Peroxisome proliferator-activated receptor delta (Homo sapiens) (UniProt Q03181); assay: qHTS assay to identify small molecule antagonists of the peroxisome proliferator-activated receptor delta (PPARd) signaling pathway (AID 743215; active = well fitted inhibition curve with a large enough effect in the signal ratio in the repeat runs, not every such curve was filed as active; inconclusive = weak or mixed curves, or effect the other way; inactive = no such curve, though single readings can be large or run the other way; the % refers to the signal ratio;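 note: cells stimulated with agonist L165041 at 300 nM final during compound exposure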); conditions: HEK293H PPARd-UAS-bla, beta-lactamase FRET ratio, antagonist, 17 h; ratio activity, negative = inhibition: at 62 µM (top of the series) unless noted
Summary of the method: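 With L165041 present at 300 nM final, compounds were incubated 17 h at 37 C on PPARd UAS-bla HEK293H cells. A FRET-based beta-lactamase substrate was then applied for 2 h at room temperature and fluorescence intensity recorded.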

[16] = target: Bile acid receptor (Homo sapiens) (UniProt Q96RI1); assay: qHTS assay to identify small molecule antagonists of the farnesoid-X-receptor (FXR) signaling pathway (AID 743217; active = well fitted inhibition curve with a large enough effect in the signal ratio in the repeat runs, not every such curve was filed as active; inconclusive = weak or mixed curves, or effect the other way; inactive = no such curve, though single readings can be large or run the other way; the % refers to the signal ratio; for activity change, negative = inhibition: % is set by controls: 0 for no effect and ±100 for the full control effect); conditions: HEK293T FXR-UAS-bla, beta-lactamase ratio, CDCA-stimulated, 16 h; activity change, negative = inhibition: at 62.6 µM (top of the series) unless noted
Summary of the method: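 In this cell-based antagonist screen, inhibition of CDCA-driven (50 uM final) UAS-beta-lactamase expression in HEK 293T cells was measured by FRET fluorescence following 16 h compound exposure at 37 °C.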

[17] = qHTS assay to identify small molecule agonists of the RXR signaling pathway - cell viability counter screen (AID 1159529); conditions: RXR-alpha-bla HEK293T viability, CellTiter-Glo, 16 h; series mostly up to 76.8 µM; note: nearly all actives have a fitted effect of over 50% in size
Summary of the method: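 RXR-alpha-UAS-bla HEK 293T cells in medium with 2% charcoal-stripped FBS were preincubated 5 hr, then exposed to compounds for 16 hr at 37 C. Viability was read as CellTiter-Glo luminescence after 30 min at room temperature.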

[18] = qHTS assay to identify small molecule antagonists of the farnesoid-X-receptor (FXR) signaling pathway - cell viability counter screen (AID 743221; active = well fitted cell-killing curve with a large enough effect in the repeat runs, not every such curve was filed as active; inconclusive = weak or mixed curves, or effect the other way; inactive = no such curve, though single readings can be large or run the other way; note: nearly all actives have a fitted effect of over 50% in size); conditions: FXR-bla HEK293T viability, CellTiter-Glo luminescence, 16 h; activity change, negative = cytotoxicity: at 62.6 µM (top of the series)
Summary of the method: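 FXR-UAS-bla HEK 293T cells were treated with test compounds plus chenodeoxycholic acid (50 uM final) for 16 h at 37 C. Cell viability in the same wells was then read as CellTiter-Glo luminescence after 30 min at room temperature.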
Potency is the fitted concentration of half-maximal effect; tags give direction and shape of the fitted curve or compound fluorescence and quenching.

UniProt P19793, sequence (P19793 whole entry, looked up): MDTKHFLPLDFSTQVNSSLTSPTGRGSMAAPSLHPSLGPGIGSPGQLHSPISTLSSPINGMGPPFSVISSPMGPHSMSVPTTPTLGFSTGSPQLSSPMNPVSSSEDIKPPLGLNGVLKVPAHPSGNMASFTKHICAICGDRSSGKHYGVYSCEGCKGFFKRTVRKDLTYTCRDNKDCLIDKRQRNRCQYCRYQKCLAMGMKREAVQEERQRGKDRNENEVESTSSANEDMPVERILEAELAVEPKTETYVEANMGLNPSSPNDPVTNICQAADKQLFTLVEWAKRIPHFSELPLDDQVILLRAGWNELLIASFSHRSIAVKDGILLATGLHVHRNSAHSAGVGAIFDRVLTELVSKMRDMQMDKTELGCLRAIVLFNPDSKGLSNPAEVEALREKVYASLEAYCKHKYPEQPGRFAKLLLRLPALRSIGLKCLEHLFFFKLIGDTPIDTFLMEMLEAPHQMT
UniProt P11473, sequence (P11473 whole entry, looked up): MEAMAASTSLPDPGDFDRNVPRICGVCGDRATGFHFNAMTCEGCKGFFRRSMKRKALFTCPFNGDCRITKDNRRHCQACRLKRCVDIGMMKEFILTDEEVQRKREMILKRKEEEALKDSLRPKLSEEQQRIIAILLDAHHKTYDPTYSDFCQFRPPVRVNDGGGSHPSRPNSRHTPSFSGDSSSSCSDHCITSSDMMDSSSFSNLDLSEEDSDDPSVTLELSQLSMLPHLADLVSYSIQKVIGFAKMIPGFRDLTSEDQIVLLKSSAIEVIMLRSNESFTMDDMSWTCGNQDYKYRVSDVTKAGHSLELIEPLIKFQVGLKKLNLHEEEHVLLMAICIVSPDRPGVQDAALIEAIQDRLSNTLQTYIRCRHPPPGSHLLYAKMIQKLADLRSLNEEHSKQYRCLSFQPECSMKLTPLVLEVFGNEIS
UniProt Q96RI1, sequence (Q96RI1 whole entry, looked up): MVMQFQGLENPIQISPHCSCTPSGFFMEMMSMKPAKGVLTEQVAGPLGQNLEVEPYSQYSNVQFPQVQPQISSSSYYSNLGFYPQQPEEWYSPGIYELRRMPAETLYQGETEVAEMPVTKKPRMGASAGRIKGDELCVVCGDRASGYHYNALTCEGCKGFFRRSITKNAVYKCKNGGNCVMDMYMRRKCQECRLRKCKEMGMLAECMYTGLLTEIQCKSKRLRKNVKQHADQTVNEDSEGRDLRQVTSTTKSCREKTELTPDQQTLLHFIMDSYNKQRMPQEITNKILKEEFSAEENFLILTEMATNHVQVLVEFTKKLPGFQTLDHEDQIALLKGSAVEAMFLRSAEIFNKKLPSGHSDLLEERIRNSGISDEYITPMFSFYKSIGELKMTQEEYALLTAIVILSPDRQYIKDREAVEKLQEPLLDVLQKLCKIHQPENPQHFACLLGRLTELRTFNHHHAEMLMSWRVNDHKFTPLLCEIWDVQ
UniProt Q03181, sequence (Q03181 whole entry, looked up): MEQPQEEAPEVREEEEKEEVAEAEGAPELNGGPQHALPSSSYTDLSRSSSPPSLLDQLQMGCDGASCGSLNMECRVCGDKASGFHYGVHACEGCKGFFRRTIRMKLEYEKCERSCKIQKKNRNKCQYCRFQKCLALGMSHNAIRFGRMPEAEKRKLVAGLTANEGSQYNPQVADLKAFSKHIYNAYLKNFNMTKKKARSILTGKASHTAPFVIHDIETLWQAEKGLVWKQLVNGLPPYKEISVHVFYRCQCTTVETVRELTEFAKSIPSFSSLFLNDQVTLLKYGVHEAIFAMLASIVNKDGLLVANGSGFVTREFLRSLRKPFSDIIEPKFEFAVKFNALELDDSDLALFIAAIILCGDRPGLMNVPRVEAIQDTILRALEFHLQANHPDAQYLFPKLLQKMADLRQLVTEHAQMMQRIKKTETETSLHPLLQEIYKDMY

CCOc1cccc(-n2cc(C(=O)N3CCN(c4cc(C(=O)O)c5ccccc5c4)CC3)nc2-c2ccc(C)cc2)c1
active: Potency [3] 46.7 µM
inconclusive: Potency [1] 33.1 µM | Potency [2] 46.7 µM [cytotoxic, partial curve, poor fit] | Potency [4] 52.5 µM [fluorescent, single point] | Potency [5] 41.7 µM [partial curve] | Potency [6] 46.7 µM [partial curve] | Potency [7] 33.1 µM [cytotoxic, partial curve] | Potency [8] 52.5 µM [cytotoxic, single point] | activation [9] 3.12% | Potency [10] 58.3 µM [cytotoxic, single point] | Potency [11] 58.3 µM [inhibitor, partial curve, poor fit] | Potency [12] 52.5 µM [cytotoxic, partial curve] | Potency [13] 52.5 µM [cytotoxic, single point] | Potency [14] 20.9 µM [partial curve, poor fit]

CC(CO)c1ccccc1 (stereo unspecified)
inactive: Potency [9]

COc1ccc(NC(=O)CC(C)=O)cc1
inconclusive: Potency [9] 6.16 µM [rising, partial curve, poor fit]

C=C(C)C1CC=C(C)C(=O)C1 (stereo unspecified)
inactive: Potency [9]

NCC1(Cc2noc(=O)[nH]2)CCCCC1
inactive: Potency [9]

CCN[C@@H]1C[C@H](N)[C@@H](OC2OC(CN)=CCC2N)[C@H](O)[C@H]1O[C@H]1OC[C@](C)(O)[C@H](NC)[C@H]1O (stereo partly specified)
inactive: activation [9] 0.974% [at 0.628 µM]

NC(=O)N1C(=O)C(C(=O)c2cc(Cl)cs2)c2cc(F)c(Cl)cc21 (stereo unspecified)
active: Potency [2] 15.5 µM | Potency [15] 13.8 µM | Potency [3] 3.89 µM | Potency [8] 13.8 µM | Potency [11] 19.3 µM | Potency [17] 49 µM
inconclusive: Potency [1] 1.74 µM [rising, full curve, poor fit] | Potency [16] 2.19 µM [rising, full curve, poor fit] | Potency [4] 43.6 µM [cytotoxic, partial curve] | Potency [5] 19.5 µM [rising, partial curve] | Potency [6] 43.6 µM [rising, partial curve] | Potency [9] 19.5 µM [cytotoxic, partial curve] | Potency [10] 30.6 µM [cytotoxic, partial curve] | Potency [13] 34.7 µM [cytotoxic, partial curve, poor fit] | Potency [14] 43.6 µM [rising, partial curve]

Cc1nccn1-c1ccc(Sc2cccc(C3(C(N)=O)CCOCC3)c2)cc1
inconclusive: activation [1] 0.986% | activity change, negative = inhibition [16] -20.7% | Potency [3] 0.11 µM [rising, full curve, poor fit] | Potency [5] 43.6 µM [rising, partial curve, poor fit] | Potency [6] 24.5 µM [fluorescent, partial curve] | Potency [10] 30.6 µM [cytotoxic, partial curve] | Potency [14] 17.4 µM
active: Potency [11] 5.45 µM
inactive: Potency [9]

CN(C)C(=O)Oc1cccc([N+](C)(C)C)c1
inactive: Potency [9]

C1=CCC2CC=CC2C1 (stereo unspecified)
inconclusive: Potency [9] 61.6 µM

CCCc1ccc(OCC(=O)N2CCN(C(=O)COc3ccc(CCC)cc3OC)CC2)c(OC)c1
inactive: Potency [6] | Potency [9]
inconclusive: Potency [10] 29.8 µM [cytotoxic] | Potency [11] 13.3 µM [inhibitor, single point] | Potency [14] 26.8 µM [rising, partial curve, poor fit]

COC(=O)c1sccc1S(N)(=O)=O
inconclusive: Potency [9] 19.5 µM [activator, single point]
inactive: Potency [10] | Potency [11]

O=C(OCC(O)CO)c1ccccc1Nc1ccnc2cc(Cl)ccc12 (stereo unspecified)
active: Potency [2] 26.6 µM
inconclusive: Potency [1] 33.5 µM | Potency [15] 26.6 µM [rising, partial curve] | Potency [16] 33.5 µM | Potency [3] 26.6 µM [cytotoxic, partial curve] | activation [4] 0.825% | Potency [18] 33.5 µM [falling, single point] | Potency [9] 26.8 µM | Potency [10] 33.5 µM [cytotoxic, partial curve, poor fit] | Potency [11] 29.8 µM [inhibitor, single point] | Potency [14] 8.49 µM [rising, full curve]

CCCCC(=O)N(C)C
inactive: Potency [9]

CCOC(=O)C(C)(C)C
inactive: Potency [9]
